# Laboratory results: the supplement of paper PMC9446081
# In all, about 39,000 compounds went through this assay and about 220 (0.56%) showed activity. The list shows a part of the results.
# System: Escherichia coli K-12 BW25113
# Experiment: relative growth (OD600 normalised to plate interquartile mean) (fraction); higher = less growth inhibition, active = 0.2 or less
# Settings: 50 µM; LB; incubation time: overnight (16-24 h)
# 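Further: static incubation at 37 °C against the wild-type strain, values averaged over two biological replicates.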
row,Structure (SMILES),relative growth
1,Cc1ccc(S(=O)(=O)N(C)C[C@H]2Oc3c(NC(=O)C4CCOCC4)cccc3C(=O)N([C@@H](C)CO)C[C@@H]2C)cc1,inactive: 1.01
2,COc1ccc(S(=O)(=O)Nc2cccc3c2O[C@H](CN(C)CC2CC2)[C@@H](C)CN([C@@H](C)CO)C3=O)cc1,inactive: 1.02
3,COc1ccc(NC(=O)Nc2cccc3c2O[C@@H](CN(C)S(C)(=O)=O)[C@@H](C)CN([C@@H](C)CO)C3=O)cc1,inactive: 0.992
4,C[C@@H]1CN([C@H](C)CO)C(=O)c2cc(NS(=O)(=O)c3ccc(F)cc3)ccc2O[C@@H](C)CCCCO[C@H]1CN(C)S(=O)(=O)c1ccc(Cl)cc1,inactive: 1.02
5,COc1cccc(NC(=O)N[C@@H]2CC[C@H](CC(=O)N3CCOCC3)O[C@@H]2CO)c1,inactive: 0.98
6,CCCN(C)C[C@H]1OCCCC[C@H](C)Oc2ccc(NC(=O)Nc3ccc(F)cc3)cc2C(=O)N([C@@H](C)CO)C[C@H]1C,inactive: 1.01
7,O=C(C[C@H]1CC[C@H](NC(=O)Nc2ccc3c(c2)OCO3)[C@@H](CO)O1)NCCCN1CCOCC1,inactive: 0.991
8,CC(=O)OC1CC(C)(C)C(=C=C/C(C)=C/C=C/C(C)=C/C=C/C=C(C)/C=C/C=C(\C)C(=O)CC23OC2(C)CC(O)CC3(C)C)C(C)(O)C1 (centres undefined),inactive: 1.01
9,COCC#Cc1cnc2c(c1)C(=O)N([C@H](C)CO)C[C@H](C)[C@@H](CN(C)C(=O)Nc1cc(F)ccc1F)O2,inactive: 0.984
10,C[C@@H]1CCCCO[C@@H](CN(C)C(=O)Nc2cccc3ccccc23)[C@H](C)CN([C@H](C)CO)C(=O)c2cc(NC(=O)NC3CCCCC3)ccc2O1,inactive: 0.952
11,C[C@H](CO)N1C[C@H](C)[C@H](CN(C)Cc2ccccc2)OCCCC[C@H](C)Oc2ccc(NC(=O)c3ccncc3)cc2C1=O,inactive: 0.992
12,COc1ccc2c3c([nH]c2c1)[C@@H](CO)N(C[C@]13CCN(CC1)C(=O)c1ccccc1F)C(=O)Nc1ccc(cc1)F,inactive: 1.02
13,C[C@H](CO)N1C[C@H](C)[C@H](CN(C)C(=O)c2cccc(F)c2)Oc2cc(C#CC3CC3)ccc2S1(=O)=O,inactive: 1.02
14,COc1ccc(S(=O)(=O)Nc2ccc3c(c2)CC(=O)N([C@H](C)CO)C[C@H](C)[C@H](CN(C)Cc2ccc(Oc4ccccc4)cc2)O3)cc1,inactive: 1.01
15,C[C@H]1CN([C@@H](C)CO)C(=O)Cc2cc(NS(=O)(=O)c3ccc(F)cc3)ccc2O[C@@H]1CN(C)C(=O)Nc1cccc2ccccc12,inactive: 1
16,COc1ccc([Si](C)(C)[C@H]2[C@H](CC(=O)N(CCO)Cc3ccccc3)O[C@@]3(C(=O)N(Cc4cccc(N5CCOC5=O)c4)c4ccccc43)[C@@H]2C)cc1,inactive: 1.01
17,Cc1ccc(S(=O)(=O)Nc2cccc3c2O[C@@H](CN(C)C(=O)Nc2cccc4ccccc24)[C@@H](C)CN([C@@H](C)CO)C3=O)cc1,inactive: 0.979
18,C[C@H]1CN([C@@H](C)CO)C(=O)Cc2cc(NC(=O)Cn3cnnn3)ccc2O[C@H]1CN(C)Cc1ccc2c(c1)OCO2,inactive: 1.02
19,COc1ccc(NC(=O)Nc2cccc3c2O[C@H](CN(C)S(=O)(=O)c2cn(C)cn2)[C@H](C)CN([C@@H](C)CO)C3=O)cc1,inactive: 0.985
20,Cc1ccc2nc(/N=C/c3ccc(Cl)cc3Cl)sc2c1,inactive: 0.96

row,Structure (SMILES),relative growth
1,Cc1ccc(S(=O)(=O)N(C)C[C@@H]2OCCCC[C@H](C)Oc3ccc(NC(=O)Nc4c(C)noc4C)cc3C(=O)N([C@@H](C)CO)C[C@H]2C)cc1,inactive: 0.999
2,S=C1SCN(Cc2ccccc2)CN1Cc1ccccc1,inactive: 0.95
3,COc1cccc(S(=O)(=O)N[C@H]2CC[C@H](CC(=O)NC3CCC3)O[C@H]2CO)c1,inactive: 0.967
4,COc1ccc(CN(C)C[C@@H]2Oc3ccc(NC(=O)CCN4CCOCC4)cc3C(=O)N([C@H](C)CO)C[C@@H]2C)cc1,inactive: 0.976
5,O=C(C[C@H]1CC[C@@H](NS(=O)(=O)c2ccc(F)cc2)[C@@H](CO)O1)N1CCC(Cc2ccccc2)CC1,inactive: 0.975
6,Cc1noc(C)c1NC(=O)N[C@@H]1CC[C@@H](CC(=O)N2CCN(C)CC2)O[C@@H]1CO,inactive: 0.978
7,C[C@@H]1CN([C@H](C)CO)C(=O)c2cc(NC(=O)Nc3ccccc3)ccc2O[C@@H](C)CCCCO[C@H]1CN(C)S(=O)(=O)c1ccc(Cl)cc1,inactive: 1.03
8,C[C@H](CO)N1C[C@H](C)[C@H](CN(C)C(=O)CCC(F)(F)F)OCCCC[C@H](C)Oc2ccc(NC(=O)Nc3ccccc3)cc2C1=O,inactive: 0.992
9,Cc1noc(C)c1S(=O)(=O)Nc1ccc2c(c1)CC(=O)N([C@@H](C)CO)C[C@H](C)[C@@H](CN(C)Cc1ccc3c(c1)OCO3)O2,inactive: 1.01
10,C[C@@H]1CCCCO[C@H](CN(C)Cc2ccc(C(F)(F)F)cc2)[C@H](C)CN([C@H](C)CO)C(=O)c2cc(NS(=O)(=O)c3cccs3)ccc2O1,inactive: 1.03
11,O=C(C[C@H]1C=C[C@H](NC(=O)C2CCOCC2)[C@H](CO)O1)NCCc1cscn1,inactive: 0.969
12,CCOC(=O)Cn1cc(F)c(=O)[nH]c1=O,inactive: 1.06
13,CCC1C=C2C(=O)OC(=O)C2CC2=C(C(=O)OC2=O)C(O)C1CC (centres undefined),inactive: 0.96
14,COc1cccc(NC(=O)N(C)C[C@H]2Oc3ncc(C#Cc4cccnc4)cc3C(=O)N([C@H](C)CO)C[C@H]2C)c1,inactive: 1.03
15,COc1ccc(NC(=O)N(C)C[C@@H]2Oc3ccc(NS(=O)(=O)c4cn(C)cn4)cc3CC(=O)N([C@H](C)CO)C[C@@H]2C)cc1,inactive: 0.992
16,CCN(CC)Cc1ccc(Nc2ccnc3cc(Cl)ccc23)cc1O.Cl.Cl,inactive: 0.884
17,COc1ccc(NC(=O)Nc2ccc3c(c2)C(=O)N([C@@H](C)CO)C[C@H](C)[C@@H](CN(C)Cc2ccc4c(c2)OCO4)OCCCC[C@@H](C)O3)cc1,inactive: 1
18,Cc1ccc(S(=O)(=O)Nc2ccc3c(c2)C(=O)N([C@@H](C)CO)C[C@H](C)[C@H](CN(C)C(=O)NC2CCCCC2)OCCCC[C@H](C)O3)cc1,inactive: 0.997
19,C[C@@H]1CN([C@H](C)CO)C(=O)CCCn2cc(nn2)CO[C@H]1CN(C)C(=O)Nc1ccccc1C(F)(F)F,inactive: 0.99
20,C[C@H](CO)N1C[C@H](C)[C@H](CN(C)C(=O)c2ccccc2)OCCCC[C@H](C)Oc2ccc(NC(=O)CCCCCC(=O)Nc3ccccc3N)cc2C1=O,inactive: 0.973

row,Structure (SMILES),relative growth
1,C[C@H](CO)N1C[C@H](C)[C@H](CN(C)C(=O)Nc2ccc(C(F)(F)F)cc2)Oc2c(NC(=O)Nc3cccc4ccccc34)cccc2C1=O,inactive: 0.971
2,CN1C(=O)c2cc(NS(C)(=O)=O)ccc2OC[C@H]2O[C@H](CC(=O)N3CCOCC3)CC[C@@H]21,inactive: 1.03
3,COc1ccc(OCc2c(-c3ccccc3)nnn2CC(=O)NS(=O)(=O)c2ccc(F)cc2F)cc1,inactive: 0.966
4,COc1ccc2c3c([nH]c2c1)[C@H](CO)N(C[C@]13CCN(CC1)C(=O)c1cnccn1)C(=O)c1cnccn1,inactive: 1.01
5,Cc1noc(C)c1S(=O)(=O)Nc1cccc2c1O[C@H](CN(C)S(=O)(=O)c1ccc(F)cc1)[C@H](C)CN([C@@H](C)CO)C2=O,inactive: 1.02
6,Cc1ccc(S(=O)(=O)N(C)C[C@H]2OCCCC[C@H](C)Oc3ccc(NS(=O)(=O)c4ccc(Cl)cc4)cc3C(=O)N([C@H](C)CO)C[C@H]2C)cc1,inactive: 1.03
7,C[C@@H]1CCCCO[C@@H](CN(C)Cc2ccccc2)[C@@H](C)CN([C@@H](C)CO)C(=O)c2cc(NC(=O)Nc3cccc4ccccc34)ccc2O1,inactive: 0.998
8,C[C@H](CO)N1C[C@H](C)[C@H](CN(C)S(C)(=O)=O)OCc2ccccc2-c2c(n(C)c3ccccc23)C1=O,inactive: 0.983
9,C[C@H](CO)N1C[C@H](C)[C@H](CN(C)S(=O)(=O)c2cn(C)cn2)Oc2ccc(NC(=O)CCN3CCOCC3)cc2CC1=O,inactive: 0.989
10,C[C@@H]1CN([C@@H](C)CO)C(=O)Cc2cc(NC(=O)Cc3cn(C)c4ccccc34)ccc2O[C@H]1CN(C)C,inactive: 0.989
11,COc1cccc(S(=O)(=O)Nc2ccc3c(c2)[C@H]2C[C@H](CC(=O)NCCc4ccccc4)O[C@H](CO)[C@H]2O3)c1,inactive: 1.01
12,C[C@@H]1CN([C@H](C)CO)S(=O)(=O)c2ccc(C3=CCCCC3)cc2O[C@@H]1CN(C)S(=O)(=O)c1cn(C)cn1,inactive: 1.02
13,Cc1c(C)n2c3c(=O)[nH]c(=O)n(C)c3nc2n1C,inactive: 0.985
14,C[C@H]1CN([C@@H](C)CO)C(=O)c2ccccc2-c2ccccc2CO[C@H]1CN(C)S(=O)(=O)c1cn(C)cn1,inactive: 1
15,Cc1ccc(NC(=O)c2cc(=O)[nH]c(=O)[nH]2)cc1,inactive: 1.02
16,C[C@@H]1CN([C@@H](C)CO)C(=O)Cc2cc(NC(=O)CCCCCC(=O)Nc3ccccc3N)ccc2O[C@@H]1CN(C)Cc1ccc(Oc2ccccc2)cc1,inactive: 1.02
17,C[C@@H]1CN([C@H](C)CO)S(=O)(=O)c2ccc(-c3ccc(C#N)cc3)cc2O[C@H]1CN(C)C(=O)CN(C)C,inactive: 0.976
18,C[C@@H]1CN([C@H](C)CO)C(=O)c2cc(NC(=O)CCC(F)(F)F)ccc2O[C@@H](C)CCCCO[C@@H]1CN(C)Cc1ccccc1,inactive: 0.974
19,C[C@H](CO)N1C[C@H](C)[C@H](CN(C)Cc2ccc(Cl)c(Cl)c2)Oc2ccc(NC(=O)Cc3cn(C)c4ccccc34)cc2C1=O,inactive: 1.02
